Measurements taken from article PMC4336329 (PLoS ONE, 2015).
About 2,200 (0.71%) of roughly 310,000 compounds showed an effect of 50% or more. The effect is printed as a negative number. This is one part of the list.

Target: human ether-à-go-go-related gene (hERG) potassium channel (human, UniProt Q12809)
Experiment: primary screen, population patch clamp on CHO cells stably expressing hERG

human ether-à-go-go-related gene (hERG) potassium channel, sequence (Q12809 whole entry, looked up): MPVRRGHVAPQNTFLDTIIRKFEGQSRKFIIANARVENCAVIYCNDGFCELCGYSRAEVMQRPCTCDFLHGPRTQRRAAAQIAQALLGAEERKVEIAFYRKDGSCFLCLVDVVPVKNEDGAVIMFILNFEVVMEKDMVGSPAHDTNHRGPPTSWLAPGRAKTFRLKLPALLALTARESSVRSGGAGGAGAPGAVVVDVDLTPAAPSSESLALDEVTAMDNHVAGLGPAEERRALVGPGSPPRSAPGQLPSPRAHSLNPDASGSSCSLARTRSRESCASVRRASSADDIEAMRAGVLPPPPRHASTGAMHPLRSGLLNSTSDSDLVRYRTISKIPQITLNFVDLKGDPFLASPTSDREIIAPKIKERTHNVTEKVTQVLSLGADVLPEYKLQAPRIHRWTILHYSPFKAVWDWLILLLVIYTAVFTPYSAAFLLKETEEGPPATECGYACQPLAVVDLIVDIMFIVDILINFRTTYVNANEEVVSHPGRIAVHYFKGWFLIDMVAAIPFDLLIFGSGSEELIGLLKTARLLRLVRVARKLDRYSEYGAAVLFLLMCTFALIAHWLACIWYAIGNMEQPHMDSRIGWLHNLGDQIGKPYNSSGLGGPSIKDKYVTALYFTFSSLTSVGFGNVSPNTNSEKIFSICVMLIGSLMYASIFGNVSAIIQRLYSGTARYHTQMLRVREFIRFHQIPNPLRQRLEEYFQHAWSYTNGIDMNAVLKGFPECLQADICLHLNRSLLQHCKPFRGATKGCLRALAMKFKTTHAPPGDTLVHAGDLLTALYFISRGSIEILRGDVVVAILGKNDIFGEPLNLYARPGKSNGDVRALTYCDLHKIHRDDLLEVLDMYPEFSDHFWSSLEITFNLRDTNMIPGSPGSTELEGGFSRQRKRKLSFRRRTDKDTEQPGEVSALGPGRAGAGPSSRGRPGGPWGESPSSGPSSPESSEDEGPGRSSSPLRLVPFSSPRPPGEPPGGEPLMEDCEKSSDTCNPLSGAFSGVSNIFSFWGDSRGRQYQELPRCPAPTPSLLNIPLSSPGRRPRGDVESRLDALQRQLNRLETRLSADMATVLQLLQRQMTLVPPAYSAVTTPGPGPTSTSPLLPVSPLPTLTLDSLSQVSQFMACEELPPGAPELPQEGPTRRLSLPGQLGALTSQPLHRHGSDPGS

SMILES | hERG current change (%, negative = inhibition) at 1uM [%]
COC(OC)c1ccnc(-c2ccc(OC(C)=O)cc2)n1 | 29.3
O=C(Oc1ccccc1N1C(=O)CCC1=O)c1ccco1 | 7.02
COc1ccc2c(c1)c1nnc(SC)nc1n2C | 8.09
CCCn1nnc(NC(=O)c2cc3ccccc3o2)n1 | 17.5
O=c1c(Cc2c(F)cccc2Cl)c(O)ccn1CC1CCCO1 (centres unmarked) | 8.23
CN=C1SC(CC(=O)Nc2cc(Cl)ccc2Cl)C(=O)N1C (centres unmarked) | 10.5
COc1ccc2sc(-c3ccc(N(C)C)cc3)c(C#CCO)c2c1 | 13.8
COc1cc(/C=N/NC(=O)c2cccc(NC(=O)c3ccccc3Cl)c2)ccc1O | 10.1
CCOC(=O)C1(CCOc2ccccc2)CCN(Cc2cccn2-c2ncccn2)CC1 | -81.6
Cc1ccc(NC(=O)CSc2nc3[nH]ncc3c(=O)[nH]2)cc1 | 5.39
COc1ccc2nc(NC3=NC(C(=O)Nc4ccc(C)cc4)CC(=O)N3)nc(C)c2c1 (centres unmarked) | 8.26
CC1(C)Cc2c(sc3c2c2ncnn2c2nnc(SCC(=O)NCc4ccco4)n32)CO1 | 4.47
CC(C)(C)c1ccc(C(=S)N2CCN(c3ccccc3)CC2)cc1 | 12.6
C=CCN=c1scc(-c2ccco2)n1/N=C/c1ccc(O)c(O)c1O | 10.7
O=C([O-])c1cc(-c2cccnc2)nc2ccccc12.[K+] | 7.92
O=c1c2c3c(sc2nc(NCCO)n1Cc1ccco1)CCCCC3 | 17.2
COCc1c(C(=O)N/N=C/c2ccncc2)nnn1-c1nonc1N | 8.1
CSCCC(NS(=O)(=O)c1ccc2c(c1)Cc1cc(S(=O)(=O)NC(CCSC)C(=O)O)ccc1-2)C(=O)O (centres unmarked) | 21.8
Cc1cccc(-n2cc(-c3ccccc3)c3c(N4CCOCC4)ncnc32)c1 | 11

SMILES | hERG current change (%, negative = inhibition) at 1uM [%]
CCC(=O)Nc1cccc(C(=O)/C=C/c2ccc(F)cc2)c1 | -26
CCOc1ccc2nnnn2n1 | 10.4
COC(=O)C1=C(c2cccc(C#N)c2)C[C@@H]2CC[C@H]1N2C(=O)NCCOc1ccccc1 | 12.1
O=C(Nc1ccc(C(=O)O)cc1)/C(=C\C=C\c1ccccc1)NC(=O)c1cccc(Br)c1 | 6.3
CC(=O)Nc1ccc(S(=O)(=O)NNC(=O)c2cccc3ccccc23)cc1 | 17.2
O=C(C1COc2ccccc2O1)N1CCN(S(=O)(=O)c2ccccc2)CC1 (centres unmarked) | -2.39
C/C(=N\Nc1nc2ccccc2[nH]1)c1cccs1 | -0.576
CN(C)CCn1c2c(c(SCC(=O)Nc3nccs3)nc1=O)CCCC2 | 1.98
COc1ccccc1NC(=O)C(CC=C(Cl)Cl)C(C)=O (centres unmarked) | 17.7
O=C(CSc1nnc(NC2CCCCC2)s1)N1CCOCC1 | 4.47
O=C(Nc1ccccc1)/C(=C/c1ccc2c(c1)OCO2)NC(=O)c1ccco1 | 11.2
CS(=O)(=O)c1ccc(Cl)c(NC(=O)COC(=O)/C=C/c2cnc3ccccc3n2)c1 | 14.6
Cc1ccc(CNc2nc(-c3cccs3)nc3ccccc23)cc1 | 9.39
O=S(=O)(NCC(c1cccnc1)N1CCc2ccccc2C1)c1ccccc1 (centres unmarked) | 10.3
COc1ccc(-c2nn(C)c3sc(C(=O)N4CCOCC4)cc23)cc1OC | -5.83
COc1ccc(Cl)cc1NC(=O)C1CCN(C(=O)Nc2ccccc2)CC1 | 11.2
C=CCn1c(SCC(=O)N2c3ccccc3Sc3ccccc32)nnc1-c1ccco1 | 13.3
COc1ccc(-c2cc(-c3ccccc3)c(C#N)c(S(C)=O)n2)cc1 (centres unmarked) | 11.6
Cc1cc(OC(C)C(=O)NC(Cc2c[nH]c3ccc(O)cc23)C(=O)O)c2c(C)c(C)c(=O)oc2c1 (centres unmarked) | -9.01

SMILES | hERG current change (%, negative = inhibition) at 1uM [%]
O=C(c1cc(Cl)ccc1OCc1ccccc1)N1CCOCC1 | 13.6
O=C(NCCO)/C(=C\c1ccc([N+](=O)[O-])o1)NC(=O)c1ccccc1 | 4.89
CN1CCN(CC#CCC2(O)c3ccccc3-c3ccccc32)CC1 | 16.1
Cc1ccc(CNS(=O)(=O)c2cn(C)cn2)cc1 | -12.6
Cc1cc(C(F)F)n2nc(C(=O)Nc3ccccc3F)nc2n1 | 14.7
CCOC(=O)c1cc(C(=O)OCC)cc(-n2c(C)cc(C(=O)CN3CCOCC3)c2C)c1 | -7.96
C=CCN1C(=O)C2(OCCCO2)c2cc(C)ccc21 | 11.5
CCCCCn1c(N)c(-c2nc3ccccc3o2)c2c([N+](=O)[O-])nn(C)c(=O)c21 | 10
Cc1[nH]c2ccccc2c1C(=O)COC(=O)CCS(=O)(=O)c1ccccc1Cl | 3.04
O=C(NNC(=S)Nc1ccc(Cl)c(Cl)c1)c1ccccn1 | 12.1
CCC(=O)c1cn(CC(=O)Nc2ccc(OC)cc2)c2ccccc12 | 7.4
C=CCNS(=O)(=O)c1cc2c3c(c1)CCN3C(=O)CC2 | 22.7
COC(=O)c1cn(NC(=O)C2CCC(C)CC2)c(=O)c2ccccc12 (centres unmarked) | 12.5
Cc1ccc(N2CCN(C(=O)CNS(=O)(=O)c3ccc(Br)s3)CC2C)cc1 (centres unmarked) | -11
CN1c2ccccc2N(C)C1c1ccc2c(c1)OCO2 | 20.3
O=C(O)CC1(CC(=O)NCc2ccc(C(F)(F)F)cc2)CCCCC1 | 0.881
O=C(CN1C(=O)NC2(CCCCC2)C1=O)Nc1cccc(S(=O)(=O)N2CCOCC2)c1 | 9.68
Cc1cc(C)n2nc(-c3cnn(C)c3C(F)(F)F)c(Cl)c2n1 | -6.07
